Assay results published in the supplement of paper PMC3334620.
Whole data set: some 33,000 sequences, median “E-score (-0.5 to 0.5)” near -0.036, cut for the highest 2% near 0.37. This is one part of the list.

Target: T1, Yer064c (UniProt P40041)
T1 sequence: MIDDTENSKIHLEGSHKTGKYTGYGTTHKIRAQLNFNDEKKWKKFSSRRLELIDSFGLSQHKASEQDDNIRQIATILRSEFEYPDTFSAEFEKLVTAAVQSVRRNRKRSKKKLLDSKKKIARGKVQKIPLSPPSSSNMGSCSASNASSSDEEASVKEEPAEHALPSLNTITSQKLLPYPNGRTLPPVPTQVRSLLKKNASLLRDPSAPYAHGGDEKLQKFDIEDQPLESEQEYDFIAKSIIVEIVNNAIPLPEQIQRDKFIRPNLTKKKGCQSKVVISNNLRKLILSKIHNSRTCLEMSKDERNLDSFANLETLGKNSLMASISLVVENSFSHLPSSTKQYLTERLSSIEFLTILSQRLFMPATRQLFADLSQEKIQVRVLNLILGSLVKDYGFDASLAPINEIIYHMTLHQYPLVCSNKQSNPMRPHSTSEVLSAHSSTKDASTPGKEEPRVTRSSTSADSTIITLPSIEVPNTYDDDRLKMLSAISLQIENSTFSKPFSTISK
Assay: PBM E-score (8-mer binding enrichment) (E-score (-0.5 to 0.5)); higher = stronger / more preferred TF binding; most listed sequences are background and not binding sites
Conditions: protein concentration: 200 nM; construct: GST-full length
How it was run: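 GST-tagged yeast TFs (full-length or DNA-binding domain) were made by PURExpress in vitro transcription/translation and applied at about 100-200 nM to universal all-10-mer Agilent arrays. The arrays were made double-stranded by primer extension, on fresh or once-stripped slides. Bound protein was detected with fluorescent anti-GST, and scans were normalised with masliner. Each ungapped eight-base word, pooled with its reverse complement, received an E-score (modified Wilcoxon-Mann-Whitney statistic) from the Universal PBM Analysis Suite.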

| Sequence | PBM E-score |
| --- | --- |
| AGTGAATA | 0.0602 |
| ACCTCTAG | -0.0546 |
| AAAGTAAC | -0.0294 |
| CACTAGTC | 0.274 |
| GCTGTCAA | -0.116 |
| AAGGAAGG | -0.0955 |
| TCAGAACA | 0.175 |
| GTGCACTA | 0.0504 |
| AAGTGAGT | 0.32 |
| CGGTAAGA | -0.0984 |
| ACCAGTGC | -0.227 |
| CCCACGGG | -0.253 |
| AACTGTGC | -0.174 |
| CAAGCTCC | -0.273 |
| CATTGCGC | -0.001 |
| AATTCCCT | -0.276 |
| GGCACCAC | -0.343 |
| TAAGTATA | 0.127 |
| GCGAGTAA | 0.206 |
| ATCACCGA | 0.182 |
| ATAGACCA | -0.0156 |
| TCCCCAGA | -0.0137 |
| AATATATG | -0.0314 |
| ACACGGGC | -0.337 |
| CGTCAGCA | -0.0315 |

| Sequence | PBM E-score |
| --- | --- |
| AGTACTCC | 0.171 |
| GATCTAAC | 0.0278 |
| AACAGTCT | 0.204 |
| AATTTTCT | -0.133 |
| ATTTGAAC | 0.105 |
| CCCGATTC | 0.0678 |
| AACAAAGT | 0.0366 |
| ATAAATCC | -0.252 |
| ACACTGAC | 0.179 |
| CTTCGTCA | 0.078 |
| CGATACAC | 0.0107 |
| AAAGGGCG | -0.0957 |
| TACGCCAA | -0.0677 |
| CCCGCCAC | -0.0887 |
| CGCCGAGA | -0.23 |
| CGTGGCTA | 0.122 |
| CATCAGCA | -0.143 |
| ACCGTTCG | -0.14 |
| CATTGGGA | -0.101 |
| AATCAATA | 0.261 |
| GATCCATC | -0.0154 |
| CGCTCTGA | 0.0188 |
| ACGAAGAC | 0.215 |
| CCCCGGTC | -0.331 |
| AAGTGTTG | 0.0583 |

| Sequence | PBM E-score |
| --- | --- |
| AACCAATA | 0.0442 |
| CCCCTCCG | -0.25 |
| AACGAACC | -0.0854 |
| TACAGTCA | 0.418 |
| CCAGTTGC | -0.196 |
| TGCCCCCA | -0.24 |
| ACAGCGAA | 0.102 |
| TGAGAGCA | -0.215 |
| ATCATTAA | 0.24 |
| AAATCTGT | 0.066 |
| CAGTGTTC | -0.0821 |
| AGCCCAAG | -0.258 |
| ATCTCGTC | -0.14 |
| CCACTGCG | 0.0731 |
| AAAATAGT | 0.124 |
| ACAAGCGA | -0.0655 |
| GAGCGGCC | -0.174 |
| CCTGATAC | -0.0813 |
| CAAGAGGC | -0.00693 |
| ACTTAACG | 0.0504 |
| CACGCTGC | 0.118 |
| GATCTCTA | 0.0123 |
| CCTTCGAC | 0.0502 |
| AGGTCCAC | -0.254 |
| AAAGCGGT | -0.0937 |

| Sequence | PBM E-score |
| --- | --- |
| ATGTTCGC | -0.145 |
| CACCTATG | -0.00484 |
| ACCTGTCA | 0.044 |
| CATGTTCC | -0.138 |
| CTGCTCTA | 0.102 |
| ATAGATGG | -0.175 |
| GCGTGCTA | -0.266 |
| CGGCACGA | -0.0913 |
| ACACCTAG | 0.0458 |
| CAATTATA | 0.0981 |
| CGCCTTTA | 0.0724 |
| GCTTGTGA | 0.0795 |
| CCAGTCTA | 0.022 |
| CGGTAGTA | 0.0891 |
| ACGGGTGC | -0.187 |
| GCTGCCTA | -0.0932 |
| AAATCTAC | -0.0431 |
| CGCCAACA | -0.0208 |
| CTTCTACA | -0.029 |
| GCAGGGAA | -0.155 |
| CTTGTAAA | -0.0979 |
| AAAACCGT | -0.0271 |
| AATCGGAA | 0.203 |
| AGCTTCCT | -0.174 |
| GGGGAGGA | -0.109 |

| Sequence | PBM E-score |
| --- | --- |
| ATGGTTGG | -0.106 |
| AGTAATGG | -0.0012 |
| ATTTCGTG | 0.056 |
| AGGACCCG | -0.268 |
| GAACCTTA | -0.0529 |
| AACGCAGT | 0.0574 |
| ATAGCCGA | -0.0195 |
| TCGTCCCA | -0.168 |
| CTAACAGC | 0.0203 |
| AATATATA | -0.112 |
| CAGCCCTA | -0.101 |
| ATTTGTAA | 0.181 |
| ATGCTGTA | -0.0827 |
| GAGTATCC | -0.0247 |
| CATAGACC | -0.1 |
| GGGTTCAC | -0.0282 |
| GGGATCTA | -0.134 |
| ATGATCAG | 0.147 |
| CAGTAGTA | 0.111 |
| GAGTATCA | 0.233 |
| TCGCATCA | 0.0502 |
| ATGTGAAA | 0.00958 |
| ACCACCAA | -0.119 |
| ACAATTCT | -0.0167 |
| CTCAGTGA | 0.235 |

| Sequence | PBM E-score |
| --- | --- |
| AAGTGCTC | -0.239 |
| GCTGTAGA | -0.0534 |
| ATCCGCAT | -0.0618 |
| CTAGAACC | -0.0227 |
| CGATCTCA | -0.0277 |
| AAACTTGT | 0.101 |
| GGGCCGAA | -0.287 |
| CCCCGAGG | -0.164 |
| CGGTTAGA | -0.0283 |
| ACATTGCA | -0.103 |
| ACGTTCTG | -0.0716 |
| AACGCCCG | -0.389 |
| CATGAAGC | 0.00225 |
| GATGGTCC | -0.202 |
| ACGCAATA | -0.0491 |
| GACGTCCA | -0.215 |
| TATGTTGA | 0.152 |
| CCAGGACA | -0.19 |
| ACACTTAC | 0.0232 |
| AGTCAAGG | 0.392 |
| GCTCGAAC | -0.138 |
| GCGAGGAA | -0.117 |
| GGCTCCAC | -0.0967 |
| AACAGAGG | -0.221 |
| ACTCACAC | 0.364 |

| Sequence | PBM E-score |
| --- | --- |
| GTCCAAAC | -0.0715 |
| AAATAGAC | -0.104 |
| GTACCATA | -0.0203 |
| AGAGGTTG | -0.195 |
| CGTACGTC | -0.241 |
| ATAAAGCG | 0.126 |
| AGTTCGCG | -0.108 |
| GATGAGAA | 0.0561 |
| CCGTCCGC | -0.3 |
| AAGCAACA | -0.101 |
| CAGGGTGC | -0.0756 |
| AGATAGAG | -0.0446 |
| CAAGTTCC | -0.135 |
| GGCCCCGA | -0.205 |
| GAACCAGA | 0.0172 |
| ACTGTAAC | 0.158 |
| ACGCATCA | -0.0554 |
| CAGTTGAA | -0.0486 |
| CGGTCAAG | -0.055 |
| AAGTAGCG | -0.0751 |
| ATGGCACC | -0.45 |
| CTTGACCA | 0.0717 |
